According to publication PMC4336329 (PLoS ONE, 2015):
About 2,200 (0.71%) of roughly 310,000 compounds showed an effect of 50% or more. Effects have a minus sign here. This is one part of the list.

What follows are compounds tested against human ether-à-go-go-related gene (hERG) potassium channel (human, UniProt Q12809) (assay: primary screen, population patch clamp on CHO cells stably expressing hERG).
Sequence of human ether-à-go-go-related gene (hERG) potassium channel (Q12809 whole entry, looked up): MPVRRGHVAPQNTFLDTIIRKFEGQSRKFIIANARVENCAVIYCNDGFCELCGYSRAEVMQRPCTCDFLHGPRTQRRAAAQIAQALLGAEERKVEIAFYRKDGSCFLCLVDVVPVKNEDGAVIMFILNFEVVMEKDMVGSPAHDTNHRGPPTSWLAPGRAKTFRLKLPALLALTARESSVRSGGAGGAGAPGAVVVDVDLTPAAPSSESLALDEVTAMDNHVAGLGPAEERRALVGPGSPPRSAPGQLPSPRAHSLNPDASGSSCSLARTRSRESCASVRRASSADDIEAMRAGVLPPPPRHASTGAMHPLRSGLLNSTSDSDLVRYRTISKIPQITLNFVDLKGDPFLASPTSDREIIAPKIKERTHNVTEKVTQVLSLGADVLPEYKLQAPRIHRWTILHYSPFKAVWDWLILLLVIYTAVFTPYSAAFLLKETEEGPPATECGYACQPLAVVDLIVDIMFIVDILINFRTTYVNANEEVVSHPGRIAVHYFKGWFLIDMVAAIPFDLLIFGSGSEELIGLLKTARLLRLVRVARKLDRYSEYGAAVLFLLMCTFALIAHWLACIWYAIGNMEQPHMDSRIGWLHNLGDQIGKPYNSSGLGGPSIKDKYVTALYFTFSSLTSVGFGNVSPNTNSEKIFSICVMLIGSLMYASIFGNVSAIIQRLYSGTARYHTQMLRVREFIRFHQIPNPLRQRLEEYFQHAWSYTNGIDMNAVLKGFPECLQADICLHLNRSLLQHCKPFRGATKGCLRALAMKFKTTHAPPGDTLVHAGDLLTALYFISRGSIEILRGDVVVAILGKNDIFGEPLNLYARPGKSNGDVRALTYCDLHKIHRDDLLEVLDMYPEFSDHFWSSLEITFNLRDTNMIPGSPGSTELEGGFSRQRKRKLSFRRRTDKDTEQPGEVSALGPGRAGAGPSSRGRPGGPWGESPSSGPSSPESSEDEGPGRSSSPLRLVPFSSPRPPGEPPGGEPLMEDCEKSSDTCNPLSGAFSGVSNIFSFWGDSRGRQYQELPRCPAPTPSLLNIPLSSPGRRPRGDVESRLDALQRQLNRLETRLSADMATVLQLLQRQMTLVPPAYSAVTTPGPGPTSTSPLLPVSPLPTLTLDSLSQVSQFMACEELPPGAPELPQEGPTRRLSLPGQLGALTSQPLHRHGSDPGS

Going from `C=CCCC(=O)Nc1ccc(COC(=O)N2CCOCC2)cc1` to `CC1CCC(C(C)C)C(=O)/C1=C\c1ccc(NC(=O)CCC(=O)O)cc1` (stereo not drawn), the “hERG current change (%, negative = inhibition) at 1uM” value falls from 14.8% to 7.12%.

Compared with `CC(C)C(c1nnnn1C1CCCCC1)N1CCc2ccccc21` (stereo not drawn), `CSCC[C@H](NC(=O)N1CCn2c1nc1ccccc12)C(=O)N1CCCCC1` is lower in “hERG current change (%, negative = inhibition) at 1uM” value: 18% for the first, 12.4% for the second.

Going from `CCC(=O)Nc1ccc(NCc2cccs2)cc1` to `CC(=O)Nc1ccc(NC(=O)Nc2cccc(C)c2C)cc1`, the “hERG current change (%, negative = inhibition) at 1uM” value rises from 11.4% to 18.6%.

Going from `COc1ccc(-c2cc(C(=O)NCCCN3CCOCC3)no2)cc1` to `CCN1CCN(C(c2ccc(OC)cc2)c2nnnn2Cc2ccc3c(c2)OCO3)CC1.Cl` (stereo not drawn), the “hERG current change (%, negative = inhibition) at 1uM” value falls from 13.6% to -17.4%.

Compared with `Cc1ccc(-n2cc(CN3CCN(C(=O)c4ncn[nH]4)CC3)c(-c3ccc(F)cc3)n2)cc1`, `Fc1ccc(-c2cc(C(F)(F)F)nc(-n3cncn3)n2)cc1` is lower in “hERG current change (%, negative = inhibition) at 1uM” value: 5.89% for the first, -8.19% for the second.

Going from `CCOC(=O)Cc1csc(NC(=O)c2c(O)c3c(n(CC(C)C)c2=O)CCCC3)n1` to `CCOC(=O)N1CCN(C(=O)COc2cc(C)c(Cl)c(C)c2)CC1`, the “hERG current change (%, negative = inhibition) at 1uM” value falls from 9.19% to 3.75%.

Compared with `COc1ccc(C2CC(c3ccc(Cl)cc3)=NN2C(=O)c2cccc([N+](=O)[O-])c2)cc1` (stereo not drawn), `CCOC(=O)C1=C(CCc2ccccc2)NC(=O)NC1c1cccc([N+](=O)[O-])c1` (stereo not drawn) is lower in “hERG current change (%, negative = inhibition) at 1uM” value: 15.9% for the first, 12.3% for the second.

Going from `O=C(O)c1ccc(SCc2ccccc2)nc1` to `Cc1cccc(/C=C(\C#N)C(=O)Nc2ccccn2)c1`, the “hERG current change (%, negative = inhibition) at 1uM” value rises from 3.94% to 16.4%.

First: O=C1CCC(CCC(=O)N2CCCC(C(=O)c3cccc(C(F)(F)F)c3)C2)=NN1 (stereo not drawn)
Second: CCS(=O)(=O)N1CCCC(C(=O)c2ccc(OC)cc2C)C1 (stereo not drawn)
The “hERG current change (%, negative = inhibition) at 1uM” value of the first is lower: -1.34% for the first, 17.5% for the second.

First: COc1cc(/C=N/NC(=O)c2cc(-c3ccc4c(c3)OCO4)n[nH]2)ccc1O
Second: COc1cccc(-n2c(=O)c3cc(OC)c(OC)cc3n(CC(=O)Nc3cc(C)[nH]n3)c2=O)c1
The “hERG current change (%, negative = inhibition) at 1uM” value of the first is lower: 8.72% for the first, 11.3% for the second.

Compared with `CCCCn1cnc2cc(NCc3cccc(OC)c3O)ccc21`, `COc1ccc(C(=O)Nc2ccc(Cl)c(Cl)c2)c(OC)n1` is higher in “hERG current change (%, negative = inhibition) at 1uM” value: -7.49% for the first, 11.7% for the second.

Going from `CCC(C)c1ccc(C2C3=C(Nc4nc(N)[nH]c(=O)c42)c2ccccc2C3=O)cc1` (stereo not drawn) to `O=c1cc(-c2ccc(O)cc2)oc2c1ccc1ccccc12`, the “hERG current change (%, negative = inhibition) at 1uM” value falls from 12.6% to 6.79%.

Going from `CCCCN(C)CCNC(=O)CSCc1ccc(C)cc1.O=C(O)C(=O)O` to `CCCCC(CCC(=O)Nc1ccc(C(=O)OC)cc1)C(=O)O` (stereo not drawn), the “hERG current change (%, negative = inhibition) at 1uM” value rises from -1.3% to 11.9%.

Going from `COC(=O)CCC(NC(=O)c1cc(C)oc1C)C(=O)OC` (stereo not drawn) to `COc1ccc(C(=O)OCC(=O)c2ccc(Br)s2)c(OC)c1`, the “hERG current change (%, negative = inhibition) at 1uM” value falls from 9.89% to 9.46%.

First: Cl.Clc1ccc(C2=NCCN2)cc1
Second: Cc1onc(-c2c(Cl)cccc2Cl)c1-c1nnc(-c2ccc(Cl)cc2)o1
The “hERG current change (%, negative = inhibition) at 1uM” value of the first is lower: 6.48% for the first, 14.1% for the second.

First: C=CCNC(=O)c1ccc2c3n(nc2c1)-c1ccc(Cl)cc1CO3
Second: COc1ccc(C(=O)C2CCCN(Cc3ccc(Sc4nncn4C)o3)C2)cc1F (stereo not drawn)
The “hERG current change (%, negative = inhibition) at 1uM” value of the first is lower: -16.1% for the first, 7.53% for the second.

Going from `Cc1ccc(S(=O)(=O)N2CCN(C)CC2)cc1` to `Cc1ccc(S(=O)(=O)N2CCN(C(=O)CCn3cncn3)CC2)cc1C`, the “hERG current change (%, negative = inhibition) at 1uM” value falls from 13.7% to 9.41%.

First: CC1CCN(C(=O)Cn2c(=O)n(CCc3ccccc3)c(=O)c3ccccc32)CC1
Second: CCC(=O)N1CCCn2c1nc1ccccc12
The “hERG current change (%, negative = inhibition) at 1uM” value of the first is lower: -4.89% for the first, 2.19% for the second.

Compared with `CNC(=O)NC(=O)COC(=O)c1n[nH]c2ccccc12`, `CCOC(=O)Nc1ccc(S(=O)(=O)Nc2cc(C)on2)cc1` is lower in “hERG current change (%, negative = inhibition) at 1uM” value: 9.81% for the first, 7.87% for the second.

Going from `CNS(=O)(=O)c1cc(-c2nnc(Nc3ccc(NC(C)=O)cc3)c3ccccc23)ccc1C` to `Cc1cccc(NC(=O)Nc2nnc(-c3ccccc3)o2)c1`, the “hERG current change (%, negative = inhibition) at 1uM” value falls from 17.8% to 12.6%.

First: CCOc1nc(Nc2cc(Cl)ccc2OC)nc(OCC)n1
Second: CCOC(=O)c1ccc(Nc2nc(C)cc(C)c2C#N)cc1
The “hERG current change (%, negative = inhibition) at 1uM” value of the first is higher: 18.3% for the first, 15.6% for the second.

Going from `Cc1ccccc1OC(=O)C1C(c2ccccc2)C(C(=O)O)C1c1ccccc1` (stereo not drawn) to `CC(C)=Nc1ccccc1C1COC(=O)C1=N` (stereo not drawn), the “hERG current change (%, negative = inhibition) at 1uM” value falls from 1.33% to 1.12%.

`CN1N=C(C(C)(C)C)CSC1=Nc1ccc(F)cc1` was tested, and the “hERG current change (%, negative = inhibition) at 1uM” value was 8.14%.
